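1) Cells in 96-well plates. 2) Compound, 48 h, 5 concentrations. 3) Linear interpolation between surrounding doses. 4) Unreached endpoint = highest concentration. Abbreviation: GI50, concentration required for 50% inhibition of growth.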 The source made the active and inactive calls. Cut-off read from the data, not from the text of the source: active = GI50 up to about 1.1 µM and inactive = higher.
Each molecule was assayed on NCI-H322M (assay: NCI anticancer screen, dose series, 48 h).
For `C=C(C)C(=O)OC1C(C(C)CCCO)=C(CO)CC2OC(=O)C(=C)C21` (stereo not given), the GI50 was inactive: 19.5 µM. For `O=C(Cn1cc(I)c(C(=O)NCC(O)CO)n1)NCC(O)CO` (stereo not given), the GI50 was inactive: > 100 µM. With `COc1ccc(-c2oc3ccc(C)cc3c(=O)c2O)cc1` the GI50 was inactive: 59.6 µM. `CCCCCCCCCCCCCCCCCCN(C)C(COC)COP(=O)([O-])OCC[N+](C)(C)C` (stereo not given) was tested, and the GI50 was inactive: 8.38 µM. `CCN(CC)CCNc1ccc2ncn3c4c(OC)ccc(O)c4c(=O)c1c23` was tested, and the GI50 was inactive: 8.67 µM. `CCO[C@H]1O[C@@H]2OC3(C)CCC4[C@H](C)CCC([C@H]1C)[C@]42OO3` (stereo not given in full) was tested, and the GI50 was inactive: > 100 µM. In the case of `C#C[C@]1(O)CC[C@H]2[C@@H]3CCC4=C/C(=N/NC(=O)c5cccc6c(=O)c7ccccc7[nH]c56)CCC4[C@H]3CC[C@@]21C` (stereo not given in full), the GI50 is reported as inactive: > 100 µM. With `CCOC(=O)c1nc(C)oc1C(F)(F)F` the GI50 was inactive: > 100 µM. With `N/C(=N\c1ccc(Cl)cc1)NS(=O)(=O)c1c(C(F)(F)F)cccc1C(F)(F)F` the GI50 was inactive: 16.3 µM. For `O=C1NC(c2cccc(OCc3ccccc3)c2)Nc2ccccc21` (stereo not given), the GI50 was active: 0.847 µM. With `Cc1cc(S(=O)(=O)N/C(=C(\C#N)C(=O)c2ccccc2)[n+]2ccc(N(C)C)cc2)c([S-])cc1Cl` the GI50 was active: 0.285 µM. With `CN(N)c1cc(=O)[nH]c(=O)[nH]1` the GI50 was inactive: > 100 µM. With `O=C(CCC=C(S(=O)(=O)c1ccccc1)S(=O)(=O)c1ccccc1)c1ccccc1` the GI50 was inactive: 12.3 µM. In the case of `Nc1cc(OCc2ccccc2)c(OCc2ccccc2)cc1C=O`, the GI50 is reported as inactive: 32.6 µM. For `Oc1cc(-c2cccc(Cl)c2)nc2ncccc12`, the GI50 was active: 0.204 µM. `C[C@]12CC[C@H]3[C@@H](CC=C4C[C@@H](O)CC[C@@]43C)[C@@H]1C[C@H](N1CCOCC1)[C@@H]2O` was tested, and the GI50 was inactive: > 100 µM. In the case of `COC(=O)C1(Cc2ccc3c(c2)CCC3)Cc2ccccc2C1=O` (stereo not given), the GI50 is reported as inactive: 32.4 µM. With `CSc1nc2c(ncn2C2OC(CO)C(O)C(O)C2O)c(=O)n1C` (stereo not given) the GI50 was inactive: > 100 µM. In the case of `Nc1nnc(CCC(=O)Nc2cc(Cl)ccc2Cl)n1N`, the GI50 is reported as inactive: > 100 µM. With `CNC(C#N)c1ccc(OC)cc1` (stereo not given) the GI50 was inactive: > 100 µM. For `CC(C)(C)NC(=O)/C(=C\Sc1ccccc1)c1ccccc1`, the GI50 was inactive: > 100 µM. In the case of `CC(C)OC(=O)C1=C2c3ncccc3C(=O)N2[C@@H](Cl)[C@H](Cl)[C@H]1Cl`, the GI50 is reported as inactive: > 100 µM. With `CCCCCCCCCCCCC(SCCNC(=O)CCNC(=O)C(O)C(C)(C)COP(=O)(O)OP(=O)(O)OCC1OC(n2cnc3c(N)ncnc32)C(O)C1OP(=O)(O)O)C(=O)NCC(N)=O` (stereo not given) the GI50 was inactive: 77.3 µM. For `Cc1cccc(C(C)C)c1NC(=O)CC1C(=O)Nc2ccccc2S1(=O)=O` (stereo not given), the GI50 was inactive: 22.7 µM. With `CN(CCNCc1cn(C)c2c1ccc1ccccc12)CCNCc1cn(C)c2c1ccc1ccccc12` the GI50 was inactive: 1.66 µM. `Cc1c2cc[n+](C)cc2c(COC2OC(CO)C(O)C2O)c2c3ccccc3n(C)c12` (stereo not given) was tested, and the GI50 was inactive: > 100 µM. `CN(C)C(CN)CC1=C(CC(CN)N(C)C)CCC1` (stereo not given) was tested, and the GI50 was inactive: > 100 µM. In the case of `CC1=NN(c2ccccc2Cl)C2(C1)C(Cl)C(=O)N2c1nc2ccccc2s1` (stereo not given), the GI50 is reported as inactive: > 100 µM. In the case of `CC(O)c1ccc[n+](Cc2ccccc2)c1` (stereo not given), the GI50 is reported as inactive: > 400 µM. `COC(=O)c1c(O)ccc2c1c1c(n2Cc2cc(OC)cc(OC)c2)C(=O)c2ccccc2C1` was tested, and the GI50 was inactive: 84.3 µM. For `CC(C)(C)OC(=O)N(O)CCCn1cnc2c(N)ncnc21`, the GI50 was inactive: > 100 µM. With `Cc1c2ccccc2c(C)n2c1nc1cc(Cl)c(Cl)cc12` the GI50 was inactive: > 10 µM. With `CCOC(=O)CCC(NC(=O)N1CCN(c2c(C)nc(C)nc2O)CC1)C(=O)OCC` (stereo not given) the GI50 was inactive: > 100 µM. In the case of `NS(=O)(=O)c1ccc(-c2ccc([As](=O)(O)O)cc2)cc1`, the GI50 is reported as inactive: > 100 µM. In the case of `Nc1nc(=O)c(/N=N/c2ccc([As](=O)(O)O)cc2)c(N)[nH]1`, the GI50 is reported as inactive: > 100 µM. `C[C@H](CCC(=O)O)[C@H]1CC[C@H]2[C@@H]3[C@@H](O)C[C@@H]4C[C@H](O)CC[C@]4(C)[C@H]3CC[C@]12C` was tested, and the GI50 was inactive: > 100 µM. In the case of `COc1cc2c3cc1Oc1c(OC)c(OC)cc4c1C(=NCC4)Cc1ccc(cc1)Oc1cc(ccc1O)C[C@H]3N(C)CC2`, the GI50 is reported as inactive: 18.4 µM. With `CCc1cccc(C(C)C)c1C1C(=O)C(=O)N(c2nc3ccccc3s2)C(=O)C1=O` the GI50 was inactive: > 100 µM. `Oc1c(Cl)c(Cl)c(Cl)c(Cl)c1Cl` [PENTACHLOROPHENOL] was tested, and the GI50 was inactive: 25.2 µM. With `CC(=O)c1ccc(Oc2ccc(/C(C)=N\N=C(N)N)cc2)cc1` the GI50 was inactive: 3.96 µM. For `CCOC(=O)C(C)NC(=O)N(C)C12CC3CC(CC(C3)C1)C2` (stereo not given), the GI50 was inactive: 490 µM. With `C[n+]1c2ccccc2c(N=[N+]=[N-])c2ccccc21` the GI50 was inactive: > 10 µM. In the case of `c1ccc(N/N=C2\NN=C(c3ccccc3)CS2)cc1`, the GI50 is reported as inactive: 24 µM. With `Clc1ccc(NCc2nnc(COc3ccc(OCc4nnc(CNc5ccc(Cl)cc5)o4)c(Cl)c3)o2)cc1` the GI50 was inactive: 51.4 µM. In the case of `Cc1ccccc1-n1c(CCl)nc2ccc(Br)cc2c1=O`, the GI50 is reported as inactive: 17 µM. For `CCCC(=O)N1CCN(c2ccc3c(c2)OC(C)O3)CC1` (stereo not given), the GI50 was inactive: > 100 µM. For `CC(=O)N[C@@H]1C(O)CN2C(=O)C(=O)O[C@H](C(O)CO)[C@@H]12` (stereo not given in full), the GI50 was inactive: > 100 µM. For `O=C1CCCCCCCCCCC1CN1CCCCC1` (stereo not given), the GI50 was inactive: > 100 µM. `CCn1c2c(c3ccccc3c1=O)C(=O)c1ccccc1-2` was tested, and the GI50 was inactive: > 100 µM. For `Cc1ccc(-c2cc(-c3ccc(Cl)cc3)nc(/N=C3\C(=O)N(CN4CCOCC4)c4ccc(Cl)cc43)n2)cc1`, the GI50 was inactive: 26.1 µM. `COc1ccc(-c2nc(SCC(=O)N/N=C/c3ccc(O)c(OC)c3)[nH]c2-c2ccc(OC)cc2)cc1` was tested, and the GI50 was inactive: 40 µM. With `O=C(O)c1c2c(c(O)c3c1CN(C1CCCCC1)CO3)OCN(C1CCCCC1)C2` the GI50 was inactive: > 100 µM. `O=Nn1c2ccccc2c2cc([N+](=O)[O-])ccc21` was tested, and the GI50 was inactive: 14.2 µM. With `CC1CCP(=O)(c2ccccc2)CC1` (stereo not given) the GI50 was inactive: > 100 µM. With `Cc1c(-c2coc(-c3ccc([N+](=O)[O-])cc3)n2)c(=O)n(-c2ccccc2)n1C` the GI50 was inactive: > 100 µM. With `C=C[C@@]1(O)CCCC[C@@H]1CC(Sc1ccccc1)Sc1ccccc1` the GI50 was inactive: 17.1 µM. With `COc1cc(C2SCC(=O)N2c2ccccn2)cc(OC)c1OC` (stereo not given) the GI50 was inactive: > 100 µM. For `CC[C@@H]1OC2(C)CC(S(=O)(=O)c3ccccc3O)CC1O2` (stereo not given in full), the GI50 was inactive: > 100 µM. `COc1cc(NS(=O)(=O)c2ccc(C)cc2)c2nccnc2c1` was tested, and the GI50 was inactive: 58.5 µM. With `CN(/N=C/c1cccc2cccnc12)c1ccc([N+](=O)[O-])cc1` the GI50 was inactive: > 100 µM. With `CCCCOC1CC2(c3ccc(OC)cc3)C(=O)c3ccccc3N2O1` (stereo not given) the GI50 was inactive: 48.9 µM. In the case of `N#CC(C(=O)CCCC(=O)Nc1ccc(Cl)cc1Cl)c1ccc(Cl)cc1` (stereo not given), the GI50 is reported as inactive: > 100 µM. With `CC1=CC[C@H](C[C@H](C#CCCCC2OCCO2)O[Si](C(C)C)(C(C)C)C(C)C)C(=O)CC1` the GI50 was inactive: > 100 µM. For `O=c1[nH]nc(-c2cccc(Br)c2)[nH]1`, the GI50 was inactive: > 100 µM. `O=C1C(Cl)N(c2c(Cl)cccc2Cl)C1c1c[nH]c2ccccc12` (stereo not given) was tested, and the GI50 was inactive: > 100 µM. For `COC(=O)N/N=C(\C)c1sc(-c2nc(C)c(/C(C)=N/NC(=O)OC)s2)nc1C`, the GI50 was inactive: > 100 µM. `CCOC(=O)[C@@H]1ON2OC(OC3CCCC3(c3ccccc3)c3ccccc3)C(OC(C)=O)[C@H]3OC(=O)[C@@H]1C32` (stereo not given in full) was tested, and the GI50 was inactive: > 100 µM. For `O=C(O)c1nc2ccc(C(F)(F)F)cc2[nH]c1=O`, the GI50 was inactive: > 100 µM. For `CCOC(=O)C1S/C(=N\c2ccc(Cl)cc2)N=C1C` (stereo not given), the GI50 was inactive: 21 µM. With `CC(=O)Oc1ccc2cc(Oc3ccc(Cl)c(Cl)c3)c(=O)oc2c1` the GI50 was inactive: 43.2 µM. In the case of `CCCSc1cc(Cl)c(C)cc1S(=O)(=O)n1ccnc1OCCCN(C)C`, the GI50 is reported as inactive: > 100 µM. For `S=C1C(CCCOCc2ccccc2)C2CCCC23CC2(CCN13)OCCS2` (stereo not given), the GI50 was inactive: > 10 µM. In the case of `O=c1[nH]c2cc(C(F)(F)F)ccc2nc1C(F)(F)F`, the GI50 is reported as inactive: 25.9 µM. With `CC(=O)OCc1cc(=O)n(C)c2c3c4c(cc12)c(C)cc(=O)n4CO3` the GI50 was inactive: 1.18 µM. `O=C(O)C(Cc1c[nH]cn1)N1C(=O)c2ccccc2C1=O` (stereo not given) was tested, and the GI50 was inactive: > 100 µM. In the case of `CN(COC(=O)C(C)(C)C)c1nc(N(C)COC(=O)C(C)(C)C)nc(N(C)COC(=O)C(C)(C)C)n1`, the GI50 is reported as inactive: > 100 µM. For `O=c1cc(N2CCN(c3cc(=O)n4ccccc4n3)CC2)oc2ccccc12`, the GI50 was inactive: > 100 µM. For `CC(C)(C)[C@H]1CO[C@]2(C)[C@@H]3C[C@@H]3C(=O)N12`, the GI50 was inactive: > 100 µM. `CC(NNC(=O)c1cc[n+]([BH2-]C#N)cc1)c1cccc(C(F)(F)F)c1` (stereo not given) was tested, and the GI50 was inactive: > 100 µM. In the case of `CC(C(=O)O)c1cnn(-c2ccccc2)c1-n1cccc1` (stereo not given), the GI50 is reported as inactive: > 100 µM. `CN(C)c1ccc2cc3ccc(N(C)C)cc3nc2c1` [ACRIDINE ORANGE] was tested, and the GI50 was inactive: 1.19 µM. With `CN(C)CCNCCCNc1c2ccccc2nc2cccc([N+](=O)[O-])c12` the GI50 was active: < 0.024 µM. For `Nc1nc(NCC2(CO)CC(CCc3ccccc3)C2)cc(=O)[nH]1` (stereo not given), the GI50 was inactive: > 100 µM. In the case of `CCOC(=O)C1=C(C)N(Cc2ccc(Cl)cc2Cl)C2(O)C(OC)CC(=O)C3C(=O)N(c4ccccc4)C(=O)C132` (stereo not given), the GI50 is reported as inactive: 8.73 µM. In the case of `Cc1cccc(Nc2cn(CCOc3ccccc3)c(=O)[nH]c2=O)c1`, the GI50 is reported as inactive: > 100 µM. With `COc1cc(OCc2ccc3nc(OC)c(OC)nc3c2)cc(OC)c1OC` the GI50 was inactive: > 10 µM. In the case of `COC[C@H]1C(=O)NCC(=O)N2N=CCC[C@H]2C(=O)N(O)[C@H](C)C(=O)O[C@@H](C(C)C)[C@H](NC(=O)[C@@](C)(O)[C@]2(O)CC[C@@H](CC(C)C)[C@H](C)O2)C(=O)N2NCCC[C@@H]2C(=O)N1O`, the GI50 is reported as active: 0.0196 µM. With `COc1cc2c(cc1OC)C1Cc3cc(OC)c(OC)cc3C(C2)N1C` the GI50 was inactive: > 75 µM. For `CC(C)(C)c1ccc(OCCOCCOc2ccc(C(C)(C)C)cc2S(N)(=O)=O)c(S(N)(=O)=O)c1`, the GI50 was inactive: > 100 µM. In the case of `COc1cc(/C=C\c2ccccn2)cc(OC)c1OC`, the GI50 is reported as inactive: > 100 µM.

— ChEMBL document CHEMBL1201862, “PubChem BioAssay data set” (2004)
